# About 2,200 (0.71%) of roughly 310,000 compounds showed an effect of 50% or more. The effect is printed as a negative number. Some of the results follow.
# Target: human ether-à-go-go-related gene (hERG) potassium channel (human, UniProt Q12809)
# Experiment: primary screen, population patch clamp on CHO cells stably expressing hERG
# Sequence of human ether-à-go-go-related gene (hERG) potassium channel (Q12809 whole entry, looked up): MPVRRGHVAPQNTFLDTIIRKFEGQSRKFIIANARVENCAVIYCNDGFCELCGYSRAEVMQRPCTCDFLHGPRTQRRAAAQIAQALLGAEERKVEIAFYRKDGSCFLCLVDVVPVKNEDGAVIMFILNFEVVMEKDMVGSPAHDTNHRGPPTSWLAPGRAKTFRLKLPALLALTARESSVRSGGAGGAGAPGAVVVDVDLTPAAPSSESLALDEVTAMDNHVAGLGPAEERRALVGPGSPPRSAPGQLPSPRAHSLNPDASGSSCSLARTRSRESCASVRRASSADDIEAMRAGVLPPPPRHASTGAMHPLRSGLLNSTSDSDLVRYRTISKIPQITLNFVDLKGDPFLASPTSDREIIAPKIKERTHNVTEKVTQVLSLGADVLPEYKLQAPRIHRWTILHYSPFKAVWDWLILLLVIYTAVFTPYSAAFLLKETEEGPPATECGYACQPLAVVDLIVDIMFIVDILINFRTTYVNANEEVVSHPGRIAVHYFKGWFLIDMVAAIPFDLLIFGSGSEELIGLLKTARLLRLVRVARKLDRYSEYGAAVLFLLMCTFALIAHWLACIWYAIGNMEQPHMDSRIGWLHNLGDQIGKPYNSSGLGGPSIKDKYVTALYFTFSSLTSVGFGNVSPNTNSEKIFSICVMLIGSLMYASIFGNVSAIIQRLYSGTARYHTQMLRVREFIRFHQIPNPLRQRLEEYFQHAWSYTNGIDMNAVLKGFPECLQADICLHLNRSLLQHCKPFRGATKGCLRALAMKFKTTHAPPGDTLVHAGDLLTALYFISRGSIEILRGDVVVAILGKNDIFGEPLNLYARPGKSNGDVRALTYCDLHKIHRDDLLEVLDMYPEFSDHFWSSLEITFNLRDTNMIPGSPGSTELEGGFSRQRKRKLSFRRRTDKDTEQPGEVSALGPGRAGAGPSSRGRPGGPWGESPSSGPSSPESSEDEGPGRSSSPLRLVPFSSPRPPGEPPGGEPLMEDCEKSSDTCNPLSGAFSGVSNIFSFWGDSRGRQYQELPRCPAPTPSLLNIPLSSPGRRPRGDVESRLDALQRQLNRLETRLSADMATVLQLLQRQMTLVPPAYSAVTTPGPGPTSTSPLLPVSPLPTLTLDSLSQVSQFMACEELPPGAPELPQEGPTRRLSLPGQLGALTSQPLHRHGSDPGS
row,Compound,"hERG current change (%, negative = inhibition) at 1uM"
1,OCCC1CN(CCCn2cccn2)CCN1Cc1ccccc1 (centres unmarked),8.59%
2,N#C/C(=C1\CCCN1)c1nc2ccccc2c(=O)[nH]1,19.9%
3,Nc1cc(=O)[nH]c(SCC(=O)Nc2ccc(Oc3ccccc3)cc2)n1,5.61%
4,CCn1c(CNC(=O)COc2ccc(C(C)C)cc2)nnc1SCC(=O)NC1CCCCC1C (centres unmarked),-10.6%
5,CCN(CC)c1nc2ccccc2n(Cc2cccc(OC)c2)c1=O,8.21%
6,C/C(CCN1CCc2nc(-c3ccccc3)c(-c3ccccc3)cc2C1)=N\O[C@@H](C)c1cn([C@H](CO)Cc2ccccc2)nn1,-1.81%
7,CC1CCN(c2cc(N3CCC(C)CC3)c([N+](=O)[O-])cc2/C=C(\C#N)c2nn(-c3ccccc3)c(N)c2C#N)CC1,-14.1%
8,O=C(NNS(=O)(=O)c1cc(Cl)cc(Cl)c1)c1sccc1-n1cccc1,8.59%
9,Cc1c(C(=O)Nc2nc3ccccc3[nH]2)cccc1[N+](=O)[O-],2.8%
10,Cn1cnnc1SCC(=O)N1CCc2ccccc21,13.1%
11,COc1ccc(NC(=O)CCNC(=O)Cn2cnc3ccccc3c2=O)cc1OC,25.6%
12,Cc1ccc(S(=O)(=O)c2c(N)n(CCCO)c3nc4ccccc4nc23)cc1,3.28%
13,COc1ccc(-c2noc(CCC(=O)NCC3CCCO3)n2)cc1 (centres unmarked),12.5%
14,CC(C)CCNC(=O)C12CN(Cc3ccccc3)CC1C(c1cccc([N+](=O)[O-])c1)=NO2 (centres unmarked),9.69%
15,N#Cc1ccc(CSc2nnc(NC(=O)CN3C(=O)C4CC=CCC4C3=O)s2)cc1 (centres unmarked),5.94%
16,CCOc1ccccc1N1CCN(Cc2ccc(OC)c(OC)c2)CC1,-46%
17,CC(=O)c1ccc(-n2c(SCC(=O)c3c[nH]c4ccccc34)nc3ccccc3c2=O)cc1,13.6%
18,CC(=O)Oc1ccccc1C(=O)Oc1ccccc1C(=O)O,11.5%
19,Cc1onc(-c2ccccc2)c1C(=O)N1CC(C)OC(C)C1 (centres unmarked),13.1%
20,CCc1ccccc1C1C(=O)c2ccccc2C1=O,20.9%
21,C=CCC1(CN2CCCC2=O)C(=O)NC(=O)NC1=O,11.4%
22,CCN(CC)C(=O)C(C)N(C#N)c1nc(NC(C)C)nc(NC(C)C)n1 (centres unmarked),-0.178%

row,Compound,"hERG current change (%, negative = inhibition) at 1uM"
1,COC(=O)c1c(C)[nH]c(C(=O)C(C)Sc2nnc(-c3cc(OC)c(OC)c(OC)c3)o2)c1C (centres unmarked),7.99%
2,O=C(Nc1ccc2c(c1)OCO2)c1cnn2c(C(F)(F)F)cc(-c3ccco3)nc12,6.26%
3,CCc1cc2c(=O)n(Cc3ccco3)c(SCC(=O)N(C)C3CCS(=O)(=O)C3)nc2s1 (centres unmarked),-85.4%
4,CC1CN(c2ccc(NC(=O)c3ccco3)cc2C(=O)O)CC(C)O1 (centres unmarked),8.66%
5,COc1cccc(-n2c(Cc3cc(=O)[nH]c(=O)[nH]3)nnc2SCC(=O)Nc2ccccc2)c1,6.12%
6,COCCNC(=O)CN1C(=O)/C(=C/c2ccccc2)Oc2ccc(C(C)(C)C)cc21,14.8%
7,Cc1ccc(NS(=O)(=O)c2cc(C(=O)O)ccc2Cl)cc1,9.3%
8,COc1cc(/C=N/NC(=O)Cn2cnc3c2c(=O)n(C)c(=O)n3C)cc(OC)c1OC,6.9%
9,Cc1ccc(SC(=O)COc2ccc(C)c(C)c2)cc1,10.5%
10,CCOC(=O)c1c(NC(=O)CCl)sc(C(=O)N(CC)CC)c1C,8%
11,CSc1cccc(NC(=O)N2CCc3ccc(NC(=O)c4ccccn4)cc3C2)c1,9.3%
12,COc1cc2c(cc1NC(=O)COCC(=O)O)oc1ccccc12,13.4%
13,O=S(=O)(c1ccccc1)N1CCCc2ccccc21,15%
14,CC(=O)c1cccc(NC(=O)N2CCCC2C(=O)NCc2ccccc2)c1 (centres unmarked),15.2%
15,Cc1ccc(CNC(=O)CN(C)S(=O)(=O)c2cnc[nH]2)cc1,4.59%
16,Cc1nc(SCC(=O)c2ccc(F)c(F)c2)[nH]c(=O)c1Oc1ccc(Cl)cc1,6%
17,Cc1ccc(NC(=O)CSc2nnnn2-c2cccnc2)c(C)c1,14.9%
18,O=C(CN1CCN(S(=O)(=O)N2CCOCC2)CC1)Nc1ccc(Cl)c(Cl)c1,-17.5%
19,CCCCn1nnc(NC(=S)NC(=O)c2ccc(-c3cccc(Cl)c3Cl)o2)n1,11.7%
20,CCn1c(SCC(=O)Nc2nc(C)cs2)nnc1C(NC(=O)c1ccccc1Cl)C(C)C (centres unmarked),3.19%
21,O=C(CN1C(=O)NC(c2ccccc2)(c2ccccc2)C1=O)N1CCOCC1,7.69%
22,O=c1[nH]cnc2c1sc1nc3c(c(-c4ccc(Cl)cc4)c12)CCC3,4.44%

row,Compound,"hERG current change (%, negative = inhibition) at 1uM"
1,COc1ccc(C(=O)CCC(=O)NCCc2ccccc2F)cc1,11.9%
2,CN(C(=S)NC(=O)c1ccc(Cl)cc1)C1CCCCC1,17.4%
3,CC1SC(C)C(=O)N(CC(=O)NCc2ccc(F)cc2)C1=O (centres unmarked),11.1%
4,Cc1ccc(NC(=S)N/N=C2/CCCCc3ccccc32)cc1,9.05%
5,CCN(CC)CCOC(c1ccccc1)c1ccc(C)cc1.Cl (centres unmarked),-48.8%
6,Nc1n[nH]c(-c2ccccc2[N+](=O)[O-])n1,12.3%
7,COc1cc(O)c(C(CCN2CCCCC2)c2ccc(N(C)C)cc2)c(OC)c1 (centres unmarked),10.3%
8,O=C(NCCc1ccccc1)C(NS(=O)(=O)c1cccc2nsnc12)c1ccccc1 (centres unmarked),3.48%
9,Cn1ncc(Br)c1NC(=O)Nc1ccccc1,9.68%
10,CN1CCN(NC(=S)Nc2ccc(OC(F)F)cc2)CC1,-9.34%
11,CC1CCN(c2ccc(S(=O)(=O)Nc3cc(C(=O)O)cc(C(=O)O)c3)cc2[N+](=O)[O-])CC1,8.13%
12,COc1ccc(N2CCN(C(=O)COC(=O)c3ccco3)CC2)cc1,10.7%
13,CC1=C(C(=O)OC2CCCC2)C(c2coc3ccccc3c2=O)C2=C(CC(C)(C)CC2=O)N1 (centres unmarked),5.99%
14,COCCCNC(CC(=O)Nc1ccc(OC)cc1OC)C(=O)O (centres unmarked),14.6%
15,COc1ccc(-n2c(/C=C(\C)O)nc(=O)c3c(C)cc(C)nc32)cc1,1.91%
16,Cc1ccc(NC(=O)c2c(C(F)(F)F)nn(C)c2SCc2cccc(C(F)(F)F)c2)cc1C,3.62%
17,C=CCNC(=O)CC1C(=O)NCCN1Cc1c(F)cccc1Cl (centres unmarked),5.87%
18,O=C(Nc1ncn[nH]1)c1cc(S(=O)(=O)Nc2cccc(C(F)(F)F)c2)ccc1Cl,15.6%
19,Br.COc1ccc(-c2csc(Nc3ccc(S(N)(=O)=O)cc3)n2)cc1OC,7.31%
20,CCCNC(=O)COC(=O)c1ccc(-c2ccccc2)cc1,11.2%
21,COc1cccc(NC(=O)CN(C)C(=O)c2cc(S(=O)(=O)N3CCCCC3)ccc2Cl)c1,-0.123%
22,Cc1c2ccccc2nc2ccccc12,10.3%

row,Compound,"hERG current change (%, negative = inhibition) at 1uM"
1,COc1cccc(C(=O)NCc2nnc(SCC(=O)Nc3nccs3)n2-c2ccccc2)c1,11.3%
2,OC(COc1ccc2ccccc2c1)CN1CCCC1 (centres unmarked),3.31%
3,Nc1cccc(Nc2nc(OC(C(F)(F)F)C(F)(F)F)nc(OC(C(F)(F)F)C(F)(F)F)n2)c1,1.92%
4,O=C(CSc1n[nH]c(=O)n1Cc1ccco1)c1ccc2c(c1)OCCO2,12.6%
5,COc1ccc(C(=O)SC2=NCCS2)cc1OC,6.07%
6,COc1ccc(CC(NC(C)=O)C(=O)NC2CCN(c3nc(C)cc(C)c3C#N)CC2)cc1OC (centres unmarked),12.7%
7,Cn1nnc2cc(C(=O)NCc3ccco3)ccc21,4.39%
8,CC(=O)CSc1nc2ccccc2s1,10.5%
9,CSc1nc2nc3c(cc2c(=O)n1-c1ccccc1C)CCCC3,-0.747%
10,CCCCS(=O)(=O)Nc1ccc(N2CCOCC2)c(S(=O)(=O)N2CCOCC2)c1,15.7%
11,CCN(CC)S(=O)(=O)c1cccc(NC(=O)CCNC(=O)c2ccccc2Cl)c1,2.47%
12,COc1ccc(/C=N/N2CCN(Cc3ccccc3)CC2)cc1,13.9%
13,Cc1ccc(Nc2nc3ccccc3n3cnnc23)cc1Cl,8.12%
14,CN(C)C=NC(=O)c1cn(-c2ccc(F)cc2)c(=O)c2ccccc12,11.8%
15,COc1ccc(/C=C/CN2CCN(Cc3ccc(F)cc3)C(CCO)C2)cc1 (centres unmarked),-3.48%
16,CCOC(=O)N1CCN(C(=O)c2nc3ccccc3s2)CC1,9.38%
17,Cc1ccc(C(c2nnnn2Cc2ccccc2)N2CC=C(c3ccc(F)cc3)CC2)cc1 (centres unmarked),10.5%
18,O=[N+]([O-])c1nn(-c2ccc3c(c2)OCCO3)n(O)c1=NC1CCN(Cc2ccccc2)CC1,-1.18%
19,COc1ccc(CCNC(=O)C2CC3Cn4c(nc5cc(Cl)c(Cl)cc54)C3N2C)cc1 (centres unmarked),-11.4%
20,COc1ccc(C2=Nn3c(nnc3-c3ccco3)SC2)cc1OC,-39.1%
